One may read the IC50 as the concentration that inhibits the measured activity by half. A lower IC50 goes with higher potency.

The values below come from patent US20250387505A1, “ANTI-FGFR3 ANTIBODY CONJUGATE AND MEDICAL USE THEREOF” (GENEQUANTUM HEALTHCARE (SUZHOU) CO., LTD., priority 2022, published 2025).

One test has as its system AMB-BT-0013T. As to the kind of experiment: In vitro cytotoxicity, 3D single spheroid model. Type of test: cell-based, human. The following applies: AMB-BT-0013T GBM PDCs, FGFR3 expression −, incubated for a week. As to the method: (§1) 1) 3D single spheroid model was formed by isolating cancer cells derived from glioblastoma patients. Two types of patient-derived cells with FGFR3 overexpression (AMB-BT-0050T, AMB-BT-0112T) and FGFR3 non-expression derived cells (AMB-BT-0013T), sampled from patients suffering from glioblastoma, were incubated overnight to form single spheroids (3D), followed by ADC was treated and incubated for a week, and then spheroid size and volume were quantified.

The subject of a further test is AMB-BT-0050T. The test is described as follows: In vitro cytotoxicity, 3D single spheroid model. The following applies: AMB-BT-0050T GBM PDCs, FGFR3 expression +++, incubated for a week. Format: cell-based, human. As to the method: as §1
Test [1] deals with AMB-BT-0050T patient-derived cells. The test is described as follows: Survival in orthotopic glioblastoma PDX model. Type of test: in vivo, BALB/c nude mice. The following applies: ADC20 20 mg/kg once intravenous, monotherapy; FIG. 7.2. As for the experimental part:
1) For evaluating the survival rate in an orthotopic mouse model of brain tumor with target expression, AMB-BT-0050T patient-derived cells were sub-cultured and mixed 2.0×10^5 cells with the medium. 7-wk-old female BALB/c nude mice were used for intracranial transplantation. The prepared patient-derived cells were injected into the brains of mice by stereotactic intracranial injection at a depth of 3.2 mm at a position of 1.7 mm left and 0.5 mm above the bregma. Mice were housed with a 12-h light/12-h dark cycle and ad libitum access to food and water. Therapeutics administration is as follows. TMZ (temozolomide) was injected through oral administration every day for 5 times. […] The survival of mice is evaluated through MST (Median Survival Time) and ILS (Increase Life Span); MST, the time point at which the probability of survival equals 50%; ILS (Increase Life Span), ILS (%)=[(median survival time of treated group)/(median survival time of control group)−1]×100.
2) To furtherly evaluate the survival rate in an orthotopic mouse model of brain tumor with target expression, in AMB-BT-0050T PDX model, mice were grouped and treated with (1) vehicle, (2) TMZ (temozolomide), 20 mg/kg; (3) ADC20 20 mg/kg; (4) combination of TMZ and ADC20. […] The survival of mice is evaluated through MST and ILS.

The test system of test [2] is Multiple myeloma cells KMS-11. The test is described as follows: Internalization activity of ADC by flow cytometry. Format: cell-based. The following applies: 1 nM, 37° C., 0 min to 4h, FIG. 10. As for the experimental part:
Multiple myeloma cells KMS-11 (JCRB, JCRB1178) in good viability, were treated with accutase, collected, suspended in serum-free RPMI medium. 1.0×10^5 cells were dyed with 1000 times diluted LIVE/DEAD™ Fixable Near-IR Dead Cell Stain dye for 30 min at RT in dark. And washed twice by cold FACS buffer to remove the excess dye and cells were incubated with tested drugs solution with the final concentration of 1 nM for 30 min on ice. After the surface binding, the antibody-cell mixture was washed by cold FACS buffer and serum-free RPMI medium to remove the excess antibody. Then antibody-bound cells were incubated at 37° C. CO2 incubator for 0 min, 10 min, 30 min, 1 h, 2 h and 4h, respectively, for antibody internalization. After incubation the antibody bonded cells were washed with Flow Cytometry Staining Buffer and fluorescence labeled by ice cold goat anti-human-IgG-IgG cross-adsorbed secondary antibody conjugated with Alexa Fluor 488 (Invitrogen, A-11013, Carlsbad, CA, USA) diluted 1:300 in staining buffer at 4° C. for 30 min. After the fluorescence labelling, the antibody-cell mixture was washed twice again and analyzed by flow cytometry.
The MFI data was normalized to MFI at 0 min, which was defined as 100%. The result was analyzed by GraphPad Prism 9.
Background: In flow cytometry, cells or beads pass a laser one at a time.

Test [3] concerns AMB-BT-0039T cells with FGFR3-TACC3 fusion. The test is described as follows: Subcutaneous glioblastoma PDX model. As to conditions: AMB-BT-0039T PDX, 8 mg/kg, QW, 2 times. Type of test: in vivo, BALB/c nude mice. As to the method: 1) AMB-BT-0039T cells with FGFR3-TACC3 fusion (GBM, patients-derived cells) in exponential growth stage were collected and counted for tumor inoculation. 0.1 mL of matrix gel buffer (PBS:Matrigel=1:1) was used to subcutaneously inject 1×10^6 cells into the right flank of SPF female BALB/c nude mice aged 6-8 weeks. The tumor diameter was measured with a caliper and the tumor volume was calculated according to the formula V=0.5 a×b^2 (wherein a is the long diameter of the tumor and b is the short diameter of the tumor). When the mean tumor volume was about 100-300 mm^3, the mice were randomized into vehicle group, and ADC20 8 mg/kg group. The day of first administration is defined as day 0. Mice in the vehicle group were given the solvent of ADC drugs with the same frequency and administration route. The tumor volume of mice in each group was measured twice a week. The experiment was end on day 24, and the tumor growth inhibition rate (TGI) was calculated as follows: TGI (%)=[1−(the mean tumor volume of the treatment group on the end day−the mean tumor volume of the treatment group on the first day)/(the mean tumor volume of the vehicle group on the end day−the mean tumor volume of the vehicle group on the first day)]×100%.

For test [4], the system named is AMB-BT-0112T cells with FGFR3-TACC3 fusion. As to the kind of experiment: Subcutaneous glioblastoma PDX model. Type of test: in vivo, BALB/c nude mice. As to conditions: AMB-BT-0112T PDX, 8 mg/kg, QW, 2 times, day 33. As for the experimental part:
2) AMB-BT-0112T cells with FGFR3-TACC3 fusion (GBM, patients-derived cells) in exponential growth stage were collected and counted for tumor inoculation. 0.1 mL of matrix gel buffer (PBS:Matrigel=1:1) was used to subcutaneously inject 1×10^6 cells into the right flank of SPF female BALB/c nude mice aged 6-8 weeks.
The tumor diameter was measured with a caliper and the tumor volume was calculated according to the formula V=0.5 a×b^2 (wherein a is the long diameter of the tumor and b is the short diameter of the tumor). When the mean tumor volume was about 100-300 mm^3, the mice were randomized into vehicle group, and ADC20 8 mg/kg group. The day of first administration is defined as day 0. Mice in the vehicle group were given the solvent of ADC drugs with the same frequency and administration route. The tumor volume of mice in each group was measured twice a week.

B1: ADC20: ADC formed by ligase site-specific conjugation of Linker-Payload 2 to anti-FGFR3 antibody A9Q (conjugate)
heavy: EVQLLESGGGLVQPGGSLRLSCAASGFTFSSYDMSWVRQAPGKGLEWVSGIYSGDGSIYYADSVKGRFTISRDNSKNTLYLQMNSLRAEDTAVYYCAKDGPMNEESRFDYWGQGTLVTVSS[human IgG1 constant region not written out]
light: QSVLTQPPSASGTPGQRVTISCSGSSSNIGNNYVSWYQQLPGTAPKLLIYADSKRPSGVPDRFSGSKSGTSASLAISGLRSEDEADYYCASWDYSLSGYVFGGGTKLTVLGQPKAAPSVTLFPPSSEELQANKATLVCLISDFYPGAVTVAWKADSSPVKAGVETTTPSKQSNNKYAASSYLSLTPEQWKSHRSYSCQVTHEGSTVEKTVAPTECGALPETGG
Turning to B1, the figures for the IC50 with AMB-BT-0013T and in the test on AMB-BT-0050T were 700 nM and 0.4 nM, respectively. Also, in test [1], the “progression of brain tumors and survival time” value is “inhibit the progression of brain tumors and prolong the survival time”. Moreover, in test [2], the internalization activity result is given as “comparable internalization activity with A9Q”. The figures for the TGI in test [3] (day 24) and in test [4] were 100.03% and 95.08%, respectively. The Tumor volume in test [3] (day 24, Mean ± SEM) was determined as 100 ± 18 mm^3; in test [4], 216 ± 52 mm^3.
